“And” between values parts separate entries of the source, which are not always exact repeats. Identical values can stand only once. The whole screen tested about 320,000 compounds, of which about 9,100 (2.8%) were called active. The inconclusive results got no clear call from the source; some entries with a clear call stand among them for comparison. Calls follow the shape of the dose curve; as a rule, active = well fitted activation curve with a large enough effect; inconclusive = small, poorly fitted or top-dose-only effect; inactive = no such curve, though single readings can be large or run the other way. Where the call is inconclusive, the potency comes from a doubtful curve fit.
Experiment: qHTS Assay for Rab9 Promoter Activators; also: nearly all actives have a fitted effect of over 60% in size
Conditions: Huh7 Rab9 promoter-luciferase reporter, luminescence, 24 h; series mostly up to 9.22 µM
How it was run: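 Cells were plated at 1500 per well in reduced-serum medium with 10% FBS and left 2 h. Compound in DMSO was then added for 24 h at 37 °C. Reporter signal was read by luminescence after 10 min with luciferase detection reagent.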
Potency is read from the fitted curve at half-maximal effect; tags tell the direction and shape of the fitted curve.

| SMILES | Potency |
| --- | --- |
| Cc1nn(-c2ccccc2Cl)c(Cl)c1/C=N/Nc1cccc(C(=O)O)c1 | active: 0.0355 µM |
| O=[N+]([O-])c1cccnc1N/N=C/c1ccccc1O | inconclusive: 3.55 µM [activator, single point] |
| Cc1nc(NC(=O)c2cc3ccccc3o2)ccc1Br | inconclusive: 3.16 µM [activator, partial curve] |
| CCNC(=O)NCCNC(=O)c1cc(OCC(F)(F)F)ccc1OCC(F)(F)F | inconclusive: 5.62 µM [activator, single point] |
| O=C(/C=C/c1ccccc1Cl)NCc1ccco1 | inactive |
| Cc1nc(N)sc1N=Nc1ccc(F)cc1 | inconclusive: 3.55 µM [activator, partial curve] |
| CCOC(=O)Nc1ccc(C(=O)c2ccncc2)cc1 | inactive |
| N#Cc1cc(C(=O)c2ccccc2OCC(=O)Nc2ccccc2Cl)cn(C2CCCCC2)c1=O | inactive |
| O=C(Nc1ccc(Br)cc1)N1CCCCC1 | inconclusive: 4.47 µM [activator, partial curve] |
| c1ccc(OCc2nc(-c3cccs3)no2)cc1 | active: 3.16 µM |
| COC(=O)c1ccc(CSc2nc3ccccc3[nH]2)o1 | inconclusive: 2.82 µM [activator, partial curve] |
| CC(=O)Oc1ccc(C(=O)Cc2ccc3ccccc3n2)c(O)c1C | inconclusive: 4.47 µM [activator, single point] |
| CCCn1c(C)cc(C(=O)CN2C(=O)c3cccc(N)c3C2=O)c1C | active: 3.16 µM |
| CC(=O)Nc1ccc2ccccc2c1 | inactive |
| CCCOc1ccc(/C=N/Nc2ccccc2[N+](=O)[O-])c(O)c1 | inconclusive: 0.398 µM [activator, partial curve] |
| CCOCC(=O)Nc1c(C(=O)Nc2ccc(OC)cc2OC)oc2ccccc12 | inconclusive: 6.31 µM [activator, single point] |
| CC(=O)Oc1ccc2cc(-c3nc4ccccc4n3C)c(=O)oc2c1 | active: 2.82 µM |
| COc1ccc2nc(NC(=O)Nc3ccccc3)sc2c1 | active: 0.708 µM |
| C/C(=N/NC(=O)c1ccccc1)C(=O)O | active: 3.55 µM |
| COc1ccc(-c2c(C(=O)O)c(-c3ccccc3)cn2C)cc1 | inactive |
| Cc1ccn2c(C(=O)c3ccc(Cl)cc3)cnc2c1 | active: 1.41 µM |

| SMILES | Potency |
| --- | --- |
| CS/C(N)=N/C(=S)Nc1cccc(Cl)c1 | inconclusive: 5.62 µM [activator, single point] |
| CCOc1ccc2oc(C(=O)N(CC)CC(=O)Nc3c(F)cccc3F)c(C)c2c1 | inactive |
| C=CCn1c(NCCc2ccccc2)nc2c1c(=O)n(C)c(=O)n2C | inactive |
| Cc1ccc(C(=O)NC(=S)Nc2ccccc2C)cc1 | inconclusive: 3.16 µM [activator, partial curve] |
| O=C(Nc1cccnc1)c1cc(-c2cc(Cl)ccc2O)n[nH]1 | inconclusive: 0.1 µM [activator, full curve, poor fit] |
| S=C(NCc1ccco1)Nc1ccc2c(c1)OCCO2 | inconclusive: 1.12 µM [activator, partial curve] |
| Cc1nn(-c2ccccc2)c(N)c1N=Nc1ccccc1 | active: 2 µM |
| Cc1cccnc1NC(=O)Nc1ccc(F)cc1 | inconclusive: 1.58 µM [activator, partial curve] |
| CC(=O)c1ccc(NC(=O)Nc2cccc(Cl)c2)cc1 | active: 1.26 µM |
| CCCOc1nc(SCCC)nc2c1cnn2-c1ccccc1 | inactive |
| O=C(Nc1ccc2c(c1)OCO2)OCc1ccccc1 | active: 1.26 µM |
| CCN(C(=O)C1=COCCO1)c1nc2c(C)cccc2s1 | inconclusive: 5.62 µM [activator, single point] |
| CCc1ccc(S(=O)(=O)Nc2ccc(-c3nc4cccnc4s3)cc2)s1 | inconclusive: 3.98 µM [activator, single point] |
| COc1cccc(C(=O)Nc2nnc(-c3ccc(OC)cc3OC)s2)c1 | inactive |
| Clc1ccccc1Nc1nnc(-c2ccncc2)s1 | active: 0.447 µM |
| O=C(Nc1ccc2c(c1)OCCO2)c1cc(F)c(F)cc1Cl | active: 2.51 µM |
| COCC1CCN(Cc2nc(-c3ccc4c(c3)OCO4)no2)C1 (configuration not stated) | active: 2.82 µM |
| O=C(CCNS(=O)(=O)c1ccccc1)N1CCCCCC1 | inconclusive: 3.16 µM [activator, partial curve] |
| COc1ccccc1CC(NC(C)=O)C(=O)NC1CCN(C(=O)Nc2ccc(F)cc2)CC1 (configuration not stated) | inactive |
| COc1ccccc1/C=C/C(=O)OCC(=O)c1c(N)n(C)c(=O)n(C)c1=O | inactive |
| O=c1c2ccccc2ncn1-c1ccc(Cl)cc1 | inconclusive: 5.62 µM [activator, single point] and inconclusive: 2.51 µM [activator, partial curve] |

| SMILES | Potency |
| --- | --- |
| Cc1ccnc(NC(=S)NC(=O)/C=C/c2ccccc2)c1 | inconclusive: 2.24 µM [activator, partial curve] |
| Cc1ccc2c(c1)N(CCCC(=O)Nc1cccc(C(F)(F)F)c1)C(=O)CO2 | inactive |
| COCCNC(=O)C(c1ccncc1)N(Cc1ccccc1)C(=O)Cn1nnc2ccccc21 (configuration not stated) | inconclusive: 3.98 µM [activator, single point] |
| CCN(Cc1cccs1)C(=O)CN1CCN(S(=O)(=O)c2ccc3c(c2)OCCCO3)CC1 | inactive |
| COc1ccccc1N1CCN(/N=C\C(Br)=C\c2ccccc2)CC1 | inconclusive: 3.55 µM [activator, partial curve, poor fit] |
| Cc1ccc(NC(=O)/C=C/c2ccc(Cl)cc2)nc1 | inconclusive: 5.62 µM [activator, single point] |
| COc1ccccc1Nc1ccc(Nc2ccccc2OC)nn1 | inconclusive: 2.51 µM [activator, partial curve] |
| O=C(CSc1nc2ccccc2o1)c1ccccc1 | inconclusive: 2.82 µM [activator, partial curve] |
| CN1CCN(c2ccc(-c3cc(O)c4ncccc4c3)cc2)CC1 | inconclusive: 1.12 µM [activator, single point] |
| CC(C)(C)OC(=O)N1CCCC1C(=O)O (configuration not stated) | inactive |
| COc1ccccc1CN=C1Nc2ccccc2CS1 | inconclusive: 1.26 µM [activator, partial curve, poor fit] |
| Clc1ccc(-c2cn3cc(Br)ccc3n2)cc1Cl | active: 2.24 µM |
| CCOc1ccc(N2C(=O)/C(=C/c3ccccc3)N=C2SC)cc1 | inconclusive: 2 µM [activator, partial curve] |
| Cc1nc2nc(-c3ccco3)nn2c(C)c1Cl | inactive |
| O=C(Nc1ccc(C(=O)N2CCOCC2)cc1)c1cccc(Br)c1 | inactive |
| CCOc1ccc(C(=O)N2CCCC(c3nc(-c4cccs4)no3)C2)cc1 (configuration not stated) | inactive |
| CCn1nc(C(=O)Nc2ccc(C)c(C)c2)c(Cl)c1Cl | inconclusive: 2.24 µM [activator, partial curve] |
| O=C(Cn1cnc2ccc(Cl)cc2c1=O)NC1CCS(=O)(=O)C1 (configuration not stated) | inactive |
| O=C(NCC(O)c1ccccc1)c1ccccc1 (configuration not stated) | active: 3.98 µM |
| Cc1cc(C(=O)COC(=O)c2ccc[nH]c2=O)c(C)n1-c1ccc(Br)cc1 | inconclusive: 2 µM [activator, partial curve] |
| Cc1nn(C)c(C)c1CNC(=O)Nc1ccc(Cl)cc1 | active: 3.16 µM |

| SMILES | Potency |
| --- | --- |
| CN(CC(=O)Nc1ccc(Cl)c(C(F)(F)F)c1)C(=O)c1cccc2cccnc12 | inactive |
| CN(Cc1ccccc1)C(=O)C1CCN(S(=O)(=O)c2cccc3nonc23)CC1 | inactive |
| COc1ccc(C(=O)Cc2nnc(C)s2)c(OC)c1 | inconclusive: 5.62 µM [activator, single point] |
| Fc1ccc(COc2ccc(-c3nnco3)cc2)c(Cl)c1 | inconclusive: 3.98 µM [activator, partial curve] |
| CCc1nnc(NC(=O)CSc2nc(C)cc(C)c2C#N)s1 | active: 0.501 µM |
| C/C(=N\Nc1cc(N2CCOCC2)ncn1)c1ccc(O)cc1 | inactive |
| CCOC(=O)CNC(=O)c1nn(-c2cccc(OC)c2)c(=O)c2ccccc12 | inconclusive: 0.794 µM [activator, single point] |
| CC(C)(C)NC(=O)C(c1cccs1)N(C(=O)c1csnn1)c1ccccc1F (configuration not stated) | inactive |
| O=C(Nc1nc2c(s1)CCCC2=O)c1cnccn1 | inconclusive: 3.98 µM [activator, partial curve] |
| CC(C)Cc1cc(C(=O)NCc2cccs2)no1 | inconclusive: 2.82 µM [activator, partial curve] |
| CCc1ccc(-c2nc(CSCC(=O)NCc3ccco3)c(C)o2)cc1 | inactive |
| CN1c2ccsc2/C(=N/Nc2ccccc2)CS1(=O)=O | inconclusive: 3.98 µM [activator, single point] |
| CCOc1ccc(-c2nnc(SCC(=O)N3CCCC3)o2)cc1 | inconclusive: 2 µM [activator, partial curve] |
| COc1ccc2c(Cl)c(C(=O)N/N=C/c3c(C)[nH]c4ccccc34)sc2c1 | inactive |
| CCCCCN=Cc1c(C)[nH]n(-c2nc3ccccc3s2)c1=O | inconclusive: 0.355 µM [activator, full curve] |
| O=C(c1noc2c1CCc1ccccc1-2)N1CCOCC1 | inconclusive: 3.16 µM [activator, single point] |
| Cc1ccc(-c2nc(C#N)c(N3CCCCC3)o2)cc1 | inconclusive: 3.55 µM [activator, partial curve] |
| Cc1ccccc1Nc1nc(-c2cccnc2)cs1 | active: 2 µM |
| O=C(CSc1nnc(NC(=O)c2ccc(F)cc2F)s1)NC1CCCC1 | inconclusive: 3.55 µM [activator, partial curve] |
